Test results taken from publication PMC4336329 (PLoS ONE, 2015).
Among all 310,000 compounds or so, about 14,000 (4.5%) showed an effect of 50% or more. The effect is printed as a negative number. The list shows a part of the results.

Target: human ether-à-go-go-related gene (hERG) potassium channel (human, UniProt Q12809)
Assay: primary screen, population patch clamp on CHO cells stably expressing hERG
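Note: peak tail current of the secondary pulse compared with the same well before compound.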

human ether-à-go-go-related gene (hERG) potassium channel, sequence (Q12809 whole entry, looked up): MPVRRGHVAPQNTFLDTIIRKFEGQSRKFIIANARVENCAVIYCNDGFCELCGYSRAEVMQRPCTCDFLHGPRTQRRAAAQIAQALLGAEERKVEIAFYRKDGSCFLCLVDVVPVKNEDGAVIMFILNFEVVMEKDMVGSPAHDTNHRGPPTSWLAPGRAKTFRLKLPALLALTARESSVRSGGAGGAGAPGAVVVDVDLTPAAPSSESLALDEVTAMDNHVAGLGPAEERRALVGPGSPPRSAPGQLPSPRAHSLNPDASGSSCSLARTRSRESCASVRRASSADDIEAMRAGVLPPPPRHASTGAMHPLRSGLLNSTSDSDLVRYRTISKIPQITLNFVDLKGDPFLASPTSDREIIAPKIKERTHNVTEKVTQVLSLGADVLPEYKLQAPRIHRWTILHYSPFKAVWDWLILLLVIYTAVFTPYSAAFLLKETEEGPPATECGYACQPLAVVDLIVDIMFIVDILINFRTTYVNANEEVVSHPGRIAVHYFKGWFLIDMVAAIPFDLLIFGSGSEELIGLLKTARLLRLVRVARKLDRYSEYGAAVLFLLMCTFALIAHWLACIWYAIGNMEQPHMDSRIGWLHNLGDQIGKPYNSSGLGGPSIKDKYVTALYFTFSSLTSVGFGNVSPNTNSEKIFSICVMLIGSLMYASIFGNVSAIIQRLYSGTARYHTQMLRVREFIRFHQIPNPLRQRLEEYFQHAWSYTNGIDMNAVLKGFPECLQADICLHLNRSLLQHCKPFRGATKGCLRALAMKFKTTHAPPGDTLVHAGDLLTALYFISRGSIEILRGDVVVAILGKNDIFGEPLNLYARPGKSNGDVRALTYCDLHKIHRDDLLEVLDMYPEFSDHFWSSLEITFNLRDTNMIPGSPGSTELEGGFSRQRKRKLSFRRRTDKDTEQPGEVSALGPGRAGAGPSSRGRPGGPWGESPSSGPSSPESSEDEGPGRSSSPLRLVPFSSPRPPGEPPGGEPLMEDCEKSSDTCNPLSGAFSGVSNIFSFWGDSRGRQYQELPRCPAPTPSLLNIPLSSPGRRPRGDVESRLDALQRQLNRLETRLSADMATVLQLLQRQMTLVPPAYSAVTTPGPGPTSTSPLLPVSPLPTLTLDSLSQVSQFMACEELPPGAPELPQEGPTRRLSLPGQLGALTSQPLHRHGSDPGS

SMILES | hERG current change (%, negative = inhibition) at 10uM
Cc1nc(NNC(=O)c2ccc([N+](=O)[O-])cc2)cc(-c2ccccc2)n1 | -50.8%
COc1ccccc1NC(=O)c1nc[nH]c1C(=O)Nc1ccccc1OC | 20%
C=C1N(C)c2cc([N+](=O)[O-])c(N)cc2C1(C)C | -29.3%
Cc1noc(NS(=O)(=O)c2ccc(NC(=O)C34CCC(CC3)C4)cc2)c1C | -9.55%
Cc1cccc(N(C)c2cc(C)nc3ncnn23)c1 | 6.34%
O=C(CCS(=O)(=O)c1ccc(Br)cc1)Nc1ccccn1 | 3.95%
CCOc1ccccc1NC(=O)c1cc2ccccc2oc1=O | 20.2%
Cc1ccc(C(=O)N2CCC3(CC2)Oc2ccc(F)cc2C(=O)C32CC(c3ccccc3)=NO2)s1 (stereo not shown) | 22.4%
CCC(=O)Nc1ccc(C(=O)Nc2cccc(OC)c2)cc1 | 1.62%
CCSc1nnc(NC(=O)CCc2ccc(OC)cc2)s1 | 1.77%
O=C(CSc1nc2ccccc2[nH]1)NCCc1ccc(Cl)cc1 | -20.9%
O=C(CSc1ccccc1)Nc1ccccc1N1CCOCC1 | -24.2%
CC1=Nn2c(nnc2-c2ccccc2Cl)SC1 | 20.1%
COc1ccc(S(=O)(=O)Nc2c(C)cccc2C)cc1-n1cnnn1 | 3.66%
O=C(CN(C(=O)c1csnn1)c1cccc(C(F)(F)F)c1)NCCc1ccccc1 | 9.81%
O=C(COC(=O)CNS(=O)(=O)c1ccccc1)Nc1ncc(Cl)cc1Cl | -5.49%
Cc1ccc(CNc2ccc3c(c2)nc(C)n3C)cc1 | -21.9%
Cc1cc(C(=O)CSc2ccc(F)cc2)cc(C)c1O | -13.6%
COC(=O)c1ccccc1NC(=O)CN(C1CCCCC1)S(C)(=O)=O | -27.1%
COc1ccc(C(CNC(=O)C(C)(C)Oc2ccc(Cl)cc2)N2CCCCC2)cc1 (stereo not shown) | -53.8%
CCOC(=O)c1cccc(NC(=O)CSc2nnc(C)n2CC2CCCO2)c1 (stereo not shown) | -17.1%
CCOC(=O)c1cc(-c2ccccc2)sc1NC(=O)C(C)Sc1nnc(C)s1 (stereo not shown) | 15.5%
Cc1cccc(-c2nnn(C/C(N)=N/O)n2)c1 | 3.93%
Cc1ccc(C)c(Cn2c(C)nc3c(sc(=S)n3-c3ccccc3)c2=O)c1 | -12.7%
O=C(c1ccccc1)n1ccc(-c2cccs2)n1 | 20.7%
